About 16,000 (4.4%) of roughly 360,000 compounds were called active. This list was built around the results that the source calls inconclusive (neither active nor inactive); the mix of calls is not that of the screen. Calls follow the shape of the dose curve; as a rule, active = well fitted inhibition curve with a large enough effect; inconclusive = small, poorly fitted or top-dose-only effect; inactive = no such curve, though single readings can be large or run the other way. Where the call is inconclusive, the potency comes from a doubtful curve fit.
What follows are compounds tested against Bromodomain adjacent to zinc finger domain protein 2B (Homo sapiens) (UniProt Q9UIF8) (assay: qHTS Assay for Inhibitors of BAZ2B). Conditions: AlphaScreen BAZ2B-H3K14Ac peptide displacement; activity change, negative = inhibition: at 114 µM (top of the series).
Sequence of UniProt Q9UIF8 (Q9UIF8 whole entry, looked up, the tested form may be a part): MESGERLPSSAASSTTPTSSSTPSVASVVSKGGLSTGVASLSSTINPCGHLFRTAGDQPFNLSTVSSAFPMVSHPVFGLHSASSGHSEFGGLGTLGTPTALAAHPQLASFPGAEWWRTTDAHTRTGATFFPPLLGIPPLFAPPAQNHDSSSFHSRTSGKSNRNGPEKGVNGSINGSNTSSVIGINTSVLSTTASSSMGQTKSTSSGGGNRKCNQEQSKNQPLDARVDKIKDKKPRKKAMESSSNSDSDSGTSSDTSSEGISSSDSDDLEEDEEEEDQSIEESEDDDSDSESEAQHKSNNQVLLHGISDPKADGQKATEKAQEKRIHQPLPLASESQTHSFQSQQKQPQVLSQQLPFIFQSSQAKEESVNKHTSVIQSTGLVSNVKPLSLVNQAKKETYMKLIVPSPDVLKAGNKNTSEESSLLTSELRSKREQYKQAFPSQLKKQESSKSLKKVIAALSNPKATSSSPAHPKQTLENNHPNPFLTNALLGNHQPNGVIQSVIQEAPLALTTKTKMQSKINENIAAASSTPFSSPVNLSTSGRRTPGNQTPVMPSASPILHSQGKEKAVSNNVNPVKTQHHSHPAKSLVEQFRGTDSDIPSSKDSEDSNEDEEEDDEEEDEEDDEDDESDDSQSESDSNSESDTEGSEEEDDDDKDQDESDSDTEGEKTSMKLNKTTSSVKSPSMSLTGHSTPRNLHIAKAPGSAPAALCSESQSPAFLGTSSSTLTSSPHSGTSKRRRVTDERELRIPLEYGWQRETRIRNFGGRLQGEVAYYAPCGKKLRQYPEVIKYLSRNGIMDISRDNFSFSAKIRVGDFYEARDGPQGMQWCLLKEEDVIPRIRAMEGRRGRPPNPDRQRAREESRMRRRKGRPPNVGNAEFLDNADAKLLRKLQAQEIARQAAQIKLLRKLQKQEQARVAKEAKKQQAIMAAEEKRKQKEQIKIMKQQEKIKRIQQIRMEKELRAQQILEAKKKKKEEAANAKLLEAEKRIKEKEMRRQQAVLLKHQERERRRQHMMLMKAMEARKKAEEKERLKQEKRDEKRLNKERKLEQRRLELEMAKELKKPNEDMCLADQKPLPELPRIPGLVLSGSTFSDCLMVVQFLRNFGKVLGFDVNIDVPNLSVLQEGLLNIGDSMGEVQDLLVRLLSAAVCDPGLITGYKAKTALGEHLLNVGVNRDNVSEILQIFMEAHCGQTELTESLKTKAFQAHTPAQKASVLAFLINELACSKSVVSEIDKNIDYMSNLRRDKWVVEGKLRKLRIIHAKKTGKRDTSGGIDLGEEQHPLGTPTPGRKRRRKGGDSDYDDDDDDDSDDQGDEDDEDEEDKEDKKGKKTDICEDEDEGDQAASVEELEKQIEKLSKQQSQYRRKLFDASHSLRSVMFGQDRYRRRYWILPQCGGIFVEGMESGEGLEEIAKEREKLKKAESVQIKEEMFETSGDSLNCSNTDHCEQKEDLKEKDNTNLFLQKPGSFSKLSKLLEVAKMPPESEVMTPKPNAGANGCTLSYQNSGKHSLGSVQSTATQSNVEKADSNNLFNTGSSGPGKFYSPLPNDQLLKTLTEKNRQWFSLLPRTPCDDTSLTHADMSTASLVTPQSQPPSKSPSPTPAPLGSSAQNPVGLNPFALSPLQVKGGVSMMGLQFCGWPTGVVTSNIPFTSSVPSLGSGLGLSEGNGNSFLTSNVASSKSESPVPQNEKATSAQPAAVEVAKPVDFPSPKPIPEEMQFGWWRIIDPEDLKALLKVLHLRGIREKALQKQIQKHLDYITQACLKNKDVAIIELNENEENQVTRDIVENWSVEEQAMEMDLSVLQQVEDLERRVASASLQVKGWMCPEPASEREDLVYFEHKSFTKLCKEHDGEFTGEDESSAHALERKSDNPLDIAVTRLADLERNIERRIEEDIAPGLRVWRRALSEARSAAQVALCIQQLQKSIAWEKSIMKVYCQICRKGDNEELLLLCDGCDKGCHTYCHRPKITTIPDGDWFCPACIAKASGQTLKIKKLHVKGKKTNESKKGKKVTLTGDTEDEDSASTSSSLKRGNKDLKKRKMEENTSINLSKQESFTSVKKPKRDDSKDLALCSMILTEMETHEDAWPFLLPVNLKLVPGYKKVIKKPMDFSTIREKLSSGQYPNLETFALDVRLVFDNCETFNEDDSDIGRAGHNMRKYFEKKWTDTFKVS
How it was run: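 AlphaScreen luminescence quantifies BAZ2B engagement of H3K14Ac peptide; the protein and biotinylated peptide are both at 50 nM final, buffer PBS pH 7.4 with 0.01% Tween-20, all steps at room temperature.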
% is scaled to controls: 0 for no effect and ±100 for the full control effect; potency is read from the fitted curve at half-maximal effect; tags tell the direction and shape of the fitted curve.
Also: nearly all actives have a fitted effect of over 60% in size.

| SMILES | activity change, negative = inhibition | Potency |
| --- | --- | --- |
| O=C(CN1CCN(Cc2ccccc2)CC1)Nc1ccc(Br)cc1 | inactive: -2.3% | – |
| O=C(NC(=S)Nc1sc2c(c1C(=O)O)CCCC2)c1ccccc1 | – | inconclusive: 44.7 µM [inhibitor, partial curve] |
| CCOc1ccccc1C(=O)N(Cc1ccco1)Cc1ccccc1F | inactive: -12.2% | – |
| C=CCOn1c(=O)c(-c2ccccc2)[n+]([O-])c2ccccc21 | inactive: -11.5% | – |
| O=C(Cn1ncc2c3ccccc3n(Cc3ccccc3F)c2c1=O)NCCCc1ccccc1 | – | inconclusive: 39.8 µM [inhibitor, single point] |
| O=C(N/N=C/c1cc(Br)c(O)c(Br)c1O)c1cccnc1 | – | active: 35.5 µM |
| O=S(=O)(c1ccc(Cl)cc1)c1nc(-c2ccccc2F)oc1NCCCN1CCOCC1 | – | inconclusive: 56.2 µM [inhibitor, partial curve] |
| C/C(=N\NS(=O)(=O)c1ccc([N+](=O)[O-])cc1)c1c[nH]c2ccccc12 | – | inconclusive: 89.1 µM [inhibitor, single point] |
| O=[N+]([O-])c1cccc(-c2ccc(/C=N/NC(=S)NCc3ccco3)o2)c1 | – | inconclusive: 22.4 µM [inhibitor, full curve] |
| COCCNC(=O)c1ccc(-c2nc(CN3CCc4ccccc43)c(C)o2)cc1 | inactive: -21.8% | – |
| CC(=O)NS(=O)(=O)c1ccc2sc(C)nc2c1 | inactive: -25% | – |
| Cc1cc(C)n(-c2cc(C(=O)O)cc(C(=O)O)c2)n1 | inactive: -34.5% | – |
| COc1ccc(OC)c(S(=O)(=O)N2CCC(C(=O)NC(C)c3ccccc3)CC2)c1 (configuration not stated) | inactive: -5.07% | – |
| Cc1ccc(-n2c(SCC(=O)Nc3ccc4c(c3)OCCO4)nc3c([nH]c4ccccc43)c2=O)cc1 | inactive: -3.78% | – |
| Cc1csc(C(C)N(C)C(=O)CCc2nnc(CCc3ccccc3)o2)n1 (configuration not stated) | – | inconclusive: 89.1 µM [inhibitor, single point] |
| COc1ccc(CNC(=O)CCCN2C(=O)c3cccnc3Oc3ccc(Cl)cc32)cc1 | inactive: 0.535% | – |
| Cc1cc(C)c2c(=O)[nH]c(SCC(=O)Nc3ccc(N(C)C)cc3)nc2n1 | – | inconclusive: 50.1 µM [inhibitor, single point] |
| CCCOc1ccc(C2C(C(=O)c3ccc(C)o3)=C(O)C(=O)N2Cc2ccco2)cc1OCC (configuration not stated) | – | inconclusive: 35.5 µM [inhibitor, partial curve] |
| COc1ccccc1/C=C/C(=O)NCC(=O)N=Nc1c(O)[nH]c2ccccc12 | – | inconclusive: 89.1 µM [inhibitor, partial curve] |
| CC(C)C(=O)Nc1cccc(NC(=O)CCN2C(=O)c3ccccc3S2(=O)=O)c1 | inactive: -1.22% | – |
| COc1cc(C2C(C#N)=C(N)Oc3c2oc(CO)cc3=O)cc(OC)c1OC (configuration not stated) | inactive: 1.31% | – |
| CCOC(=O)C1C(=O)NC(c2ccccc2)=NC1c1ccc(F)cc1 (configuration not stated) | – | inconclusive: 89.1 µM [inhibitor, single point] |
| COc1ccc(CNC(=O)CN(C(=O)c2csnn2)c2ccc(F)cc2)cc1 | inactive: 1.5% | – |
| O=C(c1cccn1-c1nnc(N2CCCCC2)s1)N1CCN(c2ccccc2)CC1 | – | inconclusive: 70.8 µM [inhibitor, single point] |

| SMILES | activity change, negative = inhibition | Potency |
| --- | --- | --- |
| O=C(NCCOc1ccccc1)c1ncn[nH]1 | – | active: 50.1 µM |
| CCOC(=O)c1c(C)oc2nc(C)nc(N3CCN(c4ccc(OC)cc4)CC3)c12 | – | inconclusive: 25.1 µM [inhibitor, single point] |
| CC(C)Cc1ccc(C(C)C(=O)Nc2cccnc2)cc1 (configuration not stated) | – | inconclusive: 79.4 µM [inhibitor, partial curve] |
| O=C(NCc1cccnc1)/C(=C\c1ccc(-c2ccc(Br)cc2)o1)S(=O)(=O)c1ccccc1 | – | inconclusive: 35.5 µM [inhibitor, full curve] |
| CCN(c1ccccc1)S(=O)(=O)c1cc(C(=O)O)ccc1C | – | active: 50.1 µM |
| O=C(Nc1ccc(F)cc1)Nc1ccc2snnc2c1 | inactive: 4.5% | – |
| COc1cccc(/C=N/N2CCN(c3ccc(Cl)cc3)CC2)c1OC | – | inconclusive: 39.8 µM [inhibitor, partial curve] |
| CCc1sc(C(=O)NC)cc1Br | – | inconclusive: 89.1 µM [inhibitor, single point] |
| Cc1ccc(C(=O)N2CCc3cc(CNC(=O)CCc4ccccc4)ccc32)cc1 | inactive: -6.72% | – |
| O=C1c2ccccc2C(=O)N1CC1c2ccccc2CCN1C(=O)C1CCCCC1 (configuration not stated) | – | inconclusive: 5.01 µM [inhibitor, single point] |
| O=C(Cn1c(SCc2ccccc2F)nc2cccnc21)Nc1ccc(F)c(Cl)c1 | inactive: 0.299% | – |
| CC(C)Cn1cc(C(=O)N2CCC(C)CC2)c2c3ccccc3n(C)c2c1=O | – | inconclusive: 89.1 µM [inhibitor, single point] |
| CC(C)c1ccc(NC2CCCN(C(=O)c3ccccc3-c3ncc[nH]3)C2)cc1 (configuration not stated) | – | active: 56.2 µM |
| O=C(Oc1cccc(C(=S)N2CCOCC2)c1)c1ccc([N+](=O)[O-])cc1 | – | inconclusive: 39.8 µM [inhibitor, partial curve] |
| COc1ccc(S(=O)(=O)N2CCC(C(=O)N3CCc4ccccc4C3)CC2)cc1Cl | inactive: -2.59% | – |
| CC(=O)N1CCN(C(=S)NCc2ccccc2)CC1 | inactive: 11.9% | – |
| CCOC(=O)Cc1c(C)nc2c(C#N)c[nH]n2c1=O | inactive: -6.24% | – |
| Cc1cc(C)cc(NC(=O)CCCn2c(=O)c3cccn3c3ccccc32)c1 | – | inconclusive: 56.2 µM [inhibitor, partial curve] |
| CCCCC#Cc1cncc(C(=O)N/N=C/c2cccc(OC)c2)c1 | inactive: -10.8% | – |
| C#CCN1C(=O)C(O)(CC(=O)c2cc(OC)ccc2OC)c2ccccc21 (configuration not stated) | – | inconclusive: 89.1 µM [inhibitor, single point] |
| COCCCn1c(Cc2csc(Nc3ccc(F)cc3)n2)nnc1SCC(N)=O | – | inconclusive: 31.6 µM [inhibitor, single point] |
| Cc1ccccc1-c1cc(C(=O)NCc2ccco2)n(CC2CC(c3cccnc3)=NO2)n1 (configuration not stated) | – | inconclusive: 100 µM [inhibitor, single point] |
| CCOC(=O)N1CCN(S(=O)(=O)c2ccc(C(=O)N(CCN(CC)CC)c3nc4ccc(C)cc4s3)cc2)CC1 | – | inconclusive: 50.1 µM [inhibitor, partial curve] |

— PubChem BioAssay AID504333 (National Center for Advancing Translational Sciences (NCATS), 2011)
